Test results published in article PMC4336329 (PLoS ONE, 2015).
Among all 310,000 compounds or so, about 2,200 (0.71%) showed an effect of 50% or more. The effect is printed as a negative number. This is one part of the list.

Molecular target: human ether-à-go-go-related gene (hERG) potassium channel (human, UniProt Q12809)
Assay: primary screen, population patch clamp on CHO cells stably expressing hERG

human ether-à-go-go-related gene (hERG) potassium channel, sequence (Q12809 whole entry, looked up): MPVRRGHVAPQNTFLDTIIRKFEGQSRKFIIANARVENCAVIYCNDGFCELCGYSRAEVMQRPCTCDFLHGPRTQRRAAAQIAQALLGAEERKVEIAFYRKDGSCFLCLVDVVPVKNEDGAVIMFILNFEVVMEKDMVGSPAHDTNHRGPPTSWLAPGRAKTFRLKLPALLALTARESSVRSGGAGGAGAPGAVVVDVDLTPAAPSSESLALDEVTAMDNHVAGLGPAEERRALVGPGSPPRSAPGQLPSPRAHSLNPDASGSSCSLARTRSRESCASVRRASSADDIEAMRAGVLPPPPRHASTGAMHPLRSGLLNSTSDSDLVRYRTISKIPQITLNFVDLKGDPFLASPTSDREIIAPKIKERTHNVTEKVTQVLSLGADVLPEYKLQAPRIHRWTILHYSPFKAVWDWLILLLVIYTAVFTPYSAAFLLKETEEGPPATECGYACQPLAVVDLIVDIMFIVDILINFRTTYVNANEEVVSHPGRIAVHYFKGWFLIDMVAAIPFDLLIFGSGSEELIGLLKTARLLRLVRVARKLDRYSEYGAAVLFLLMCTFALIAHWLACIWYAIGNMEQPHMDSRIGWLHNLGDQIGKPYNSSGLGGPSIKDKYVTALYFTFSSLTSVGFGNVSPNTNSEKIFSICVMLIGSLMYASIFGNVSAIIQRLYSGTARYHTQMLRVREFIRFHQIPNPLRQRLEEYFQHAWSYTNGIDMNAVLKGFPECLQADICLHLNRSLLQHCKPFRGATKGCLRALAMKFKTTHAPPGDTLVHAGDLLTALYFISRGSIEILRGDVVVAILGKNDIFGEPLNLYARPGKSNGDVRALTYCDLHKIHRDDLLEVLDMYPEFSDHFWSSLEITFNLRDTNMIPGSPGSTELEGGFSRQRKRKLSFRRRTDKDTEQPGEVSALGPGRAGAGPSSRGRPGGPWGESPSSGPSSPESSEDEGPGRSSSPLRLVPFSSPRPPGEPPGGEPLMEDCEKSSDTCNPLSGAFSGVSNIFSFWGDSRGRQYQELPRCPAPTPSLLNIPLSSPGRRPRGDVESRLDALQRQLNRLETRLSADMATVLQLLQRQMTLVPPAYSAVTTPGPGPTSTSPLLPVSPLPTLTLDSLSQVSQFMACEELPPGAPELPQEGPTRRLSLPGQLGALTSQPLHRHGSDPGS

SMILES	hERG current change (%, negative = inhibition) at 1uM [%]
COc1cc(/C=C/C(=O)OCC(=O)NCCN2C(=O)CSC2=O)ccc1OCC#N	5.27
COc1ccc(NC(=O)CCNS(=O)(=O)c2ccc(C)c(C)c2)cc1OC	12.7
Cc1nnc(NC(=O)CCS(=O)(=O)Cc2ccccc2)s1	-33.1
O=c1c2c(nc3cc(-c4ccccc4)[nH]n13)CCS2	21.5
CCN(c1ccc(NC(=O)c2cccc(S(=O)(=O)N3CCN(C)CC3)c2)cc1)C(C)C	8.87
CC(C)(C)OC(=O)N[C@@H](Cc1ccccc1)c1nnc(S(=O)(=O)Cc2ccccc2)o1	5.19
Cn1c(=O)[nH]c2nncnc2c1=O	4.06
CCOC(=O)Nc1ccc2c(c1)N(C(=O)CN(CC)CC)c1ccccc1C=C2.Cl.O	-0.132
CCCNC(=S)N1CCC(NC(=O)C23CC4CC(CC(C4)C2)C3)CC1	12.1
O=S1(=O)c2cccc3cccc(c23)N1Cc1ccc(-c2nnco2)cc1	10.1
CC12CCC(=O)N1C(C(=O)Nc1ccc(F)cc1)CS2 (stereo not drawn)	15.2
CC(=O)c1c(C)oc2ccc(NS(=O)(=O)c3ccc(C)cc3)cc12	14.2
Cc1ccc2c(c1)C1CN(C)CCC1N2C(=O)c1cccs1 (stereo not drawn)	5.82
CC(=O)N(c1ccc(C)cc1)S(=O)(=O)c1ccc(Cl)cc1	11.2
O=c1[nH]c(SCCOc2ccccc2F)nc2ccccc12	7.08
CC(=O)Nc1ccc2c(c1)C(=O)N(c1cccc3ccccc13)C2=O	5.98
O=C(Nc1c2c(nn1-c1ccc(F)cc1)CS(=O)(=O)C2)c1ccc(S(=O)(=O)N2CCOCC2)cc1	23
COCCCNC(=S)N(Cc1cccnc1)Cc1ccc(OC)c(OC)c1	12.6
CCOc1ccc(C(C)=O)cc1CSc1nnc(-c2ccoc2C)n1N	6.64
CCCCc1c(O)nc2sc3cc(OC)ccc3n2c1=O	4.58
CN(C)S(=O)(=O)Oc1ccsc1C(=O)Nc1ccc(C(F)(F)F)cc1	6.28
COc1ccc(CNc2nc(-c3cccnc3)nn2S(C)(=O)=O)cc1	14.5
Cc1ccc(-c2cc(C(=O)NC3CCCCC3)no2)cc1	16.8

SMILES	hERG current change (%, negative = inhibition) at 1uM [%]
CC(C)(C)c1ccc(-n2ncc3c2CCCC3NC(=O)CCN2CCCCC2=O)cc1 (stereo not drawn)	12
Cc1nn(Cc2ccccc2)c(C)c1NC(=O)CSc1nc(C2CC2)nc2c1cnn2-c1ccccc1	18.2
CCCCOC(=O)c1ccc(NC(=O)c2ccoc2C)cc1	7.39
COc1ccc(CC2=C(O)c3ccccc3C(=O)C2=O)cc1	13.5
Cc1ccc(S(=O)(=O)NC(=O)c2cc(C)n(-c3cc(S(=O)(=O)N4CCOCC4)ccc3N3CCCC3)c2C)cc1	-10.7
CNC(=S)N/N=C/c1ccc(-c2cc([N+](=O)[O-])ccc2Cl)o1	5.68
CCOC(=O)/C(=C/c1ccccc1)NC(=O)c1ccco1	6.98
COc1ccc(S(=O)(=O)N(C)C)cc1NC(=O)CCCSc1ccccc1	-5.8
O=C1/C(=C/c2cccs2)CCC1C1CCCC1 (stereo not drawn)	14.4
CCOc1ccc(-c2c[n+]3c(n2-c2ccccc2)CCCCC3)cc1.[Br-]	-30.6
Cc1ccc(NCCC(=O)c2cccs2)cc1Cl	13.2
CCOC(=O)Cn1c(C)nc2ccccc21	-3.72
O=C(Nc1ccc2c(c1)OCO2)N1CCN(S(=O)(=O)c2ccc(Cl)cc2)CC1	-2.72
Cc1ccc(N=C2SCCCN2C(=O)C2=COCCO2)cc1Cl	20.1
O=C(Nc1cc(-c2nc3ncccc3o2)ccc1Cl)c1ccc([N+](=O)[O-])o1	-3.77
O=C(CSCC(=O)OCC(=O)c1ccc(Br)cc1)Nc1cccc2ccccc12	9.43
CC(C)/C=C1\CC/C(=C\c2ccc(N(C)C)cc2)C1=O	12.4
Cc1sc2ncn(CC(=O)NCCCC(=O)N3CCN(c4ccccc4)CC3)c(=O)c2c1C	-3.48
CCCN1CCC(N2CCN(c3cccc(C(F)(F)F)c3)CC2)CC1	-31.5
Nc1ccc(C(=O)N/N=C\C=C\c2ccc([N+](=O)[O-])cc2)cc1	6.63
Cc1ccc(C(=O)CN2C(=O)NC3(CCCCC3C)C2=O)s1 (stereo not drawn)	3.21
Cc1cccc2cc(C#N)c(NCCNC(=S)NCCCN3CCOCC3)nc12	4.84
CC(=O)c1cccc(CN2CCCC(C(=O)c3ccc4c(c3)OCO4)C2)c1 (stereo not drawn)	-18.6

SMILES	hERG current change (%, negative = inhibition) at 1uM [%]
COc1ccc(OCC(=O)NNC(=S)NC(=O)c2ccc(Br)o2)cc1	7.66
COc1cc(C2NC(=O)c3ccccc3O2)ccc1OC(C)C (stereo not drawn)	14.6
O=C(Nc1nc2c(s1)CCc1ccccc1-2)c1ccco1	-2.37
COc1cccc(-n2c(C)nn(CCOc3ccccc3)c2=O)c1	5.95
COC(=O)[C@H](C)NC(=O)Nc1ccc(C)c(C)c1	15.2
COCCn1nnnc1C(c1ccccc1OC)N1CCN(C(=O)c2ccco2)CC1 (stereo not drawn)	-5.55
O=[N+]([O-])c1ccc(C(O)CNC(=S)Nc2ccccc2)cc1 (stereo not drawn)	5.73
CCOC(=O)N1CCN(C(=O)C(=O)NN)CC1	4.73
CCCN(CC(=O)Nc1ccccc1OC)C(=O)c1ccncc1	12.3
O=C(COc1cccc2cccnc12)NCC(F)(F)F	10.5
COc1ccc(NC(=O)CCCC2CCCCC2)c(OC)c1	11.3
Fc1ccccc1-c1nc(N2CCCCC2)c2ccccc2n1	13.4
COC(=O)c1[nH]c2ccccc2c1NC(=O)c1ccccc1[N+](=O)[O-]	6.34
COc1ccc([C@H]2/C=C\CN(C(=O)C3CC3)[C@@H](C)C(=O)N2Cc2ccc(F)cc2)cc1	1.06
O=C(CN1C(=O)NC2(CCCCC2)C1=O)NNC(=O)C1CC1	13.3
CNC(=O)CSc1nnc(-c2cccs2)o1	9.39
CCOc1ccc(NC(=O)CN(C)c2ccc(S(=O)(=O)N(C(C)C)C(C)C)cn2)cc1OCC	4.93
CCOC(=O)c1cccc(N2C(=O)c3ccccc3S2(=O)=O)c1	-24.4
COc1ccc(CNC(=O)C(C)N2CCN(S(=O)(=O)c3ccccc3F)CC2)cc1 (stereo not drawn)	8.52
CCOc1ccccc1NC(=O)CSc1nnnn1C1CCCC1	2.98
O=C(Nc1ccc(F)cc1)c1cccc2c1C(=O)N(Cc1ccccn1)C2	-17.6
Cc1cccc(C)c1-n1ncc(C(=O)NC2CCCC2)c1C1CCNCC1	15.2
O=C(c1cccc(Oc2ccc([N+](=O)[O-])cc2Cl)c1)N1CCOCC1	0.772

SMILES	hERG current change (%, negative = inhibition) at 1uM [%]
O=C(CSc1nnc(Cc2ccccc2)o1)NCCc1ccccc1	7.62
COc1ccc(C(=O)Cn2cnc3ccc(Cl)cc3c2=O)cc1F	13.8
O=c1c2ccccc2nc(SCC2CCCCO2)n1-c1ccccc1 (stereo not drawn)	5.87
O=C(NCc1cccnc1)NC1(c2ccccc2)CC1	19.7
COc1ccccc1C(=O)NC(=O)CSc1nnc(SC)s1	8.29
COc1cccc(COC(=O)C2CCN(C(=O)c3ccc(F)cc3)CC2)c1OC	12.5
COC(=O)c1ccc(/C=N\N2CCN(c3ccccc3)CC2)cc1	16.1
CCOc1cc2c(cc1OCC)-n1cccc1C(c1ccc(F)cc1)NC2.Cl (stereo not drawn)	2.16
COc1cccc(CNC(=O)Nc2cccs2)c1	12.5
CCOC(=O)CNC(=O)CSc1ncnc2c1cnn2-c1ccccc1	-6.16
CN(CCC#N)C(=O)CSc1ncnc2sc(-c3ccccc3)cc12	11.4
COc1cccc(C(=O)COC(=O)c2ccc(NC(C)=O)cc2)c1	13.1
FC(F)(F)c1n[nH]c(=S)n1/N=C/c1ccco1	3.81
CCS(=O)(=O)Nc1cc(-c2nc3cccnc3s2)ccc1C	9.93
S=c1[nH]nc(CN2CCCC2)n1Cc1ccccc1	-3.66
CC(=O)c1c(C)[nH]c(C(=O)CN2C(=O)NC(C)(c3ccc(C)cc3)C2=O)c1C (stereo not drawn)	23.5
CCOC(=O)C1(CCOc2ccccc2)CCN(S(=O)(=O)N(C)C)CC1	9.42
CN1CCN(C(=O)c2ccc3c(c2)N(Cc2cccc(Cl)c2)C(=O)c2ccccc2S3(=O)=O)CC1	12.3
Cc1ncsc1CCC(=O)N1CCCC(C(=O)c2ccc3c(c2)OCO3)C1 (stereo not drawn)	1.98
N#Cc1ccc(OCC(=O)Nc2ccc3[nH]c(=O)[nH]c3c2)cc1	5.61
CN(C)/C=C1\SC(=S)N(c2ccc(F)cc2)C1=O	12.2
